These results are taken from the supplement of paper PMC8007513.

Structures are written as SMILES. Where a name gives a salt, the structure may show the parent alone. ± gives the standard error. The campaign covered roughly 1,300 compounds. About 130 (10%) showed an effect of 50% or more. Only a part is listed here, and it is no random draw.

The assay has as its system Trichoderma virens ATCC 9645. Kind of assay: growth yield (OD600) with compound + IPBC relative to untreated control; higher = less growth inhibition. Conditions: compound concentration: 100 uM, IPBC concentration: 200 ng/ml. In short, it runs like this:
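Trichoderma virens ATCC 9645 spores at 15,000 spores ml^−1 in potato dextrose broth were exposed in 96-well plates to library compounds at 100 μM final, with or without a biocide at 200 ng ml^−1. After growth at 30 °C, OD600 was read at 40 h and 72 h. Values are growth relative to the control without either agent, averaged over duplicate screens.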

Take `CNC(=O)c1c(I)c(C(=O)NCC(=O)Nc2c(I)c(C(=O)O)c(I)c(C(=O)NCCO)c2I)c(I)c(N(C)C(C)=O)c1I` [Ioxaglic acid] + CCCCNC(=O)OCC#CI [3-iodo-2-propynyl butylcarbamate (IPBC)]: the growth yield (40 h) turned out to be 89.4 ± 5.9% and the growth yield (72 h) came to 92.6 ± 1.8%.

For `CCCCNc1cc(C(=O)O)cc(S(N)(=O)=O)c1Oc1ccccc1` [Bumetanide] + CCCCNC(=O)OCC#CI [3-iodo-2-propynyl butylcarbamate (IPBC)], the growth yield by setting is: (40 h) 82.6 ± 0.32%; (72 h) 96.07 ± 0.63%.

`CC(=O)Oc1ccccc1C(=O)Oc1ccccc1C(=O)O` [Acetylsalicylsalicylic acid] + CCCCNC(=O)OCC#CI [3-iodo-2-propynyl butylcarbamate (IPBC)]: the growth yield runs as follows: (40 h) 85 ± 1.8%; (72 h) 89.7 ± 2.2%.

On to `CC(C)n1c(/C=C/C(O)CC(O)CC(=O)O)c(-c2ccc(F)cc2)c2ccccc21` (configuration not stated) [Fluvastatin sodium salt] + CCCCNC(=O)OCC#CI [3-iodo-2-propynyl butylcarbamate (IPBC)], for which the growth yield (40 h) was 13.8 ± 0.48% and the growth yield (72 h) was 33.9 ± 0.52%.

Consider `NC(=O)OCC(COC(N)=O)c1ccccc1` [Felbamate] + CCCCNC(=O)OCC#CI [3-iodo-2-propynyl butylcarbamate (IPBC)], for which the growth yield is, setting by setting: (40 h) 103 ± 3.6%; (72 h) 97.6 ± 3.9%.

Take `Cc1ccnc(NS(=O)(=O)c2ccc(N)cc2)n1` [Sulfamerazine] + CCCCNC(=O)OCC#CI [3-iodo-2-propynyl butylcarbamate (IPBC)]: the growth yield (40 h) turned out to be 88.2 ± 6.2% and the growth yield (72 h) is 90.9 ± 4.7%.

For the molecule `N=C(N)NCc1cccc(I)c1` [Iobenguane sulfate] + CCCCNC(=O)OCC#CI [3-iodo-2-propynyl butylcarbamate (IPBC)], the growth yield turned out to be 89% (40 h) and 96.3 ± 1.1% (72 h).

With `Nc1ccc(S(=O)(=O)Nc2cnc3ccccc3n2)cc1` [Sulfaquinoxaline sodium salt] + CCCCNC(=O)OCC#CI [3-iodo-2-propynyl butylcarbamate (IPBC)], the growth yield (40 h) worked out at 105 ± 2.5% and the growth yield (72 h) stood at 106.8 ± 0.63%.

In the case of `CNC[C@H](O)[C@@H](O)[C@H](O)[C@H](O)CO` [Meglumine] + CCCCNC(=O)OCC#CI [3-iodo-2-propynyl butylcarbamate (IPBC)], the growth yield runs as follows: (40 h) 88.6 ± 3.2%; (72 h) 92.1 ± 1.1%.

Turning to `NCCCC(O)(P(=O)(O)O)P(=O)(O)O` [Alendronate sodium] + CCCCNC(=O)OCC#CI [3-iodo-2-propynyl butylcarbamate (IPBC)], the growth yield by setting is: (40 h) 89.9 ± 1.3%; (72 h) 93.34 ± 0.42%.

As to `CN(C)CCn1nnnc1SCC1=C(C(=O)O)N2C(=O)[C@@H](NC(=O)Cc3csc(N)n3)[C@H]2SC1` [Cefotiam hydrochloride] + CCCCNC(=O)OCC#CI [3-iodo-2-propynyl butylcarbamate (IPBC)], the growth yield was 96.4 ± 11% (40 h) and 97.8 ± 7.5% (72 h).
